# The other results are listed elsewhere or left out.
# B1: chr1:229631753:229631754:-_ENSG00000069248_ENST00000261396|hu_hu|FALSE|FALSE (ssRNA)
# RNA: GGGAGUUCUACAGUCCGACGAUCAUGCUUUUCUGAAGAAUCAUCUAAUUCCCAUUUACUGAUGUUUGAACUCGUCAGGCUAUAAAAGCUUGAUCUCUCUCUAUCCCAGAGAACACUUGAAAGUGUGAGAUCACUACUAGGAGACAACAGAGGAUUGAGCAUCA
# B2: chr1:163172661:163172662:-_ENSG00000143248_ENST00000313961|hu_hu|FALSE|FALSE (ssRNA)
# RNA: GGGAGUUCUACAGUCCGACGAUCGCUGCAAGUCCUUUGCACAUUUUGGCAGGUGGCUUAGCUCCUCCGCUUUAAGUACAACUUCUUAACAGCAGAGCCAGUCUUUGAAAACUUCAAAACUGUCUGGGAUGCCUUUCCUCCUGACAACAGAGGAUUGAGCAUCA
# B3: chr4:148551591:148551592:-_ENSMUSG00000063077_ENSMUST00000060537|mus_hu|mus_mus_mus_hu_False|8_48 (ssRNA)
# RNA: GGGAGUUCUACAGUCCGACGAUCACCUGACAAAAUUAAAUAUCCCUGUAAAUUAGACAAUAAGCAGCAGGCAACAAAGUCUUUGCUUUGAAAUAUGUGCCAGGAAAAGUCAUCUUGUUUUUAGAUCACACCUUUCAGUUCACACAACAGAGGAUUGAGCAUCA
# B4: chr5:50689391:50689392:+_ENSG00000016082_ENST00000230658|hu_hu|motif|central (ssRNA)
# RNA: GGGAGUUCUACAGUCCGACGAUCAAUAGGACUGGCUACCAUGCUGUUAGGUGUAUCUGGAAGUUGAGAGGACAUUGAUGCGGCUUCACUGCCAGUGGAAUUAGAGCCCGGUCCUCCUUCUGAAAAAUUGACCAGUUGCUGAAACAACAGAGGAUUGAGCAUCA
# B5: 56417614_56417734_8254_CDS_ENSG00000151914_ENST00000244364|human|control|control (ssRNA)
# RNA: GGGAGUUCUACAGUCCGACGAUCCAAGGCCUGAAGUGAUUUCUGCUGAGUUUGCAACAUGGUCAGGUAUUUGUUACUGUAAGCCUGGGAUCCCAGCGAAUCAUGGAUAUCUAGCUGCUCCUUUGCACACUGAAGCUGCCUUUUCAACAGAGGAUUGAGCAUCA
# B6: chr22:19452774:19452775:-_ENSG00000070010_ENST00000399523|hu_hu|hu_hu_hu_mus_False|1_8 (ssRNA)
# RNA: GGGAGUUCUACAGUCCGACGAUCCUUCUCAUUGUAGUUGAUAGCAAUCACAUCUCCAGUCGUCAGACAGGCGAAGUUUCUCAAUGCAUUUUCUAAUACCGCUUUAGGGUUGGUAAUAUCCAGGAAGUCAGGGCUCUGAGGUUGCAACAGAGGAUUGAGCAUCA
# B7: chr17:45761549:45761550:+_ENSG00000108424_ENST00000290158|hu_hu|FALSE|FALSE (ssRNA)
# RNA: GGGAGUUCUACAGUCCGACGAUCGACAUGGAAGGGAGGAUAUAAACGAGGAGUUGGAGAAAAACGCAAGCCCAGUUUUUGCUAGAGUGGAAAUGAAAGUGGGAAUGAGGGUCUUGUUUUUAGUCCUCUAAGGACCAGGAAGCACAACAGAGGAUUGAGCAUCA
# B8: chr14:90871201:90871202:+_ENSG00000198668_ENST00000553542|hu_mus|motif|central (ssRNA)
# RNA: GGGAGUUCUACAGUCCGACGAUCCGACCAAUACAUGCAGACUUUGUGUGUGGACAGAGGGGCUUCUGACAUUCAGCUUCGCGGGAUACAAACAGAAUGAAGAAAUGAACUUUUUCUUUUUUUUUCUUUUUUUUGUAAGAGGUACAACAGAGGAUUGAGCAUCA
# B9: chr5:77712431:77712432:+_ENSG00000085365_ENST00000538629|hu_hu|motif|central (ssRNA)
# RNA: GGGAGUUCUACAGUCCGACGAUCCCAAUUAUUUUUUCUACCAUGUUGACUGAGGUUUUGCAUUUCUCGUUCCCGACGAUCGGAUUCUGCGGCUUUUCUUUCUAGUUCUUCCUGGCGCUUAAGAAGUUCAGCUUGGGCCAAUGCCAACAGAGGAUUGAGCAUCA
# B10: 136387362_136387482_376_3pUTR_ENSMUSG00000051391_ENSMUST00000055808|mouse|control|control (ssRNA)
# RNA: GGGAGUUCUACAGUCCGACGAUCGACCAUCUCGAUCUUCUUCUCGUUGCCGUCCGCAGACGUCUUCUGCUCGAUGCUGCUGAUGACCCUCCAGGAGGAGCGGCGAGCCCCCACCACGUUCUUGUAGGCCACCGACAGGAGGUUCAACAGAGGAUUGAGCAUCA
# B11: 94933556_94940741_412_3pUTR_ENSG00000117528_ENST00000370214|human|control|control (ssRNA)
# RNA: GGGAGUUCUACAGUCCGACGAUCGCUCAUUUAACCCAUACUUCAAGAAGUUAUUAACCAGAGAGAUAAGAGGCAUGGCAGCGAUGAAGUUGAGUAAGUAUCUCUUGAAAUCUUUCCUGCUACGACCAAUGAUACCACUUUCAACAACAGAGGAUUGAGCAUCA
# B12: chr7:71034872:71034873:-_ENSMUSG00000052040_ENSMUST00000063694|mus_hu|FALSE|FALSE (ssRNA)
# RNA: GGGAGUUCUACAGUCCGACGAUCCAUCAAAAUAGGUACUCAUCAAAACAGGUAUCUCUGGCAAGAUACCCUGAGUCCACCCCAAUCCCCCCACCCCCCCCAACACACGCGUGUGUGCUCACGCGCGCACACACCCACACGCACCAACAGAGGAUUGAGCAUCA
# B13: chr7:56126124:56126125:+_ENSG00000146731_ENST00000540286|hu_hu|FALSE|FALSE (ssRNA)
# RNA: GGGAGUUCUACAGUCCGACGAUCUUGAUUAAUAACAACAAAUCCUUUAUCUGAAUCGCCACAGACUUUCCUUUUCAGUUCUAUUAUUUUUUUAACCCUAUCUUCAAUGAAUUUUCUUUCAGCUUUCACGAGUUUUUCUCUCUCCAACAGAGGAUUGAGCAUCA
# B14: chr4:144460044:144460045:+_ENSG00000153147_ENST00000283131|hu_mus|hu_hu_hu_mus_False|68_68 (ssRNA)
# RNA: GGGAGUUCUACAGUCCGACGAUCACGGUCCAUAGCCUGAAGAUCAACUUGCGGAUUCCAAUCUGAGUCAUACAAAAUGACUACAUCAGCAGUUGCAAGAUUGAUGCCCAGACCACCAGCACGUGUGCUUAGCAUAAAUACAAACAACAGAGGAUUGAGCAUCA
# Target: T1, UNK ZnF1-3 (human, UniProt Q9C0B0 31-174)
# T1 sequence: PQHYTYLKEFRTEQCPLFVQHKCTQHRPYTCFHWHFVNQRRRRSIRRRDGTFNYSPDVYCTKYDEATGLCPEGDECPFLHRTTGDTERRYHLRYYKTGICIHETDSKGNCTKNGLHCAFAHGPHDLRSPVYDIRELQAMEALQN
# Assay: nsRBNS (natural sequence RNA bind-n-seq); RBNS binding buffer (assumed for nsRBNS): 25 mM Tris pH 7.5, 150 mM KCl, 3 mM MgCl2, 0.01% Triton X-100, 500 ug/ml BSA, 20 U/ml SUPERase-In, 4 C; UNK is unkempt and MSI1 is Musashi-1; names of the RNAs are library labels; protein concentration not given here; high values mean tight binding
row,Binder,binding signal [enrichment R]
1,B1,0.773
2,B2,0.787
3,B3,1.16
4,B4,1.72
5,B5,0.768
6,B6,0.893
7,B7,2.36
8,B8,1.36
9,B9,0.319
10,B10,0.701
11,B11,1.56
12,B12,1.64
13,B13,0.518
14,B14,0.906

# From article PMC12136788
